# Results as given in PubChem BioAssay AID1671194 (National Center for Advancing Translational Sciences (NCATS), 2021).
# The campaign covered roughly 140,000 compounds. About 240 (0.17%) were called active. Inconclusive means that the source gave no clear call. Such entries were picked first, then a sample of the others. Calls come from the whole dose curve; as a rule, active = well fitted inhibition curve with a large enough effect; inconclusive = small, poorly fitted or top-dose-only effect; inactive = no such curve, though single readings can be large or run the other way. A potency beside an inconclusive call is a rough fit, not a confirmed value.
# Assay: Primary qHTS assay for inhibitors of alpha-synuclein gene (SNCA) expression; note: nearly all actives have a fitted effect of over 45% in size
# Details: HEK-293 SNCA-luciferase knock-in, luminescence, 24 h; series mostly up to 57.2 µM
# Potency is the fitted concentration of half-maximal effect; tags give direction and shape of the fitted curve.
row,Compound,Potency
1,FC(F)(F)CN1C2CCC1CN(c1cnc3ccccc3c1)C2,inactive
2,COc1ccc(C)cc1NC(=O)c1cccn(Cc2ccccc2Cl)c1=O,"inconclusive: 39.8 µM [inhibitor, single point]"
3,COc1cccc(CN2CC[C@@H]3CN(S(C)(=O)=O)[C@@H]3C2)n1,"inconclusive: 14.1 µM [inhibitor, single point]"
4,O=C1NC2(CCN(Cc3ccncc3)C2)Oc2ccccc21 (configuration not stated),inactive
5,Cc1cccc(C)c1OCC(=O)Nc1ccc(Cl)cc1C(=O)c1ccccc1,"inconclusive: 39.8 µM [inhibitor, single point]"
6,COc1ccc(S(=O)(=O)NC[C@H]2C[C@@H]3CCN2C[C@@H]3CN2CCC(Cc3ccccc3)CC2)cc1,"inconclusive: 39.8 µM [inhibitor, single point]"
7,CC(C)CCN(C1CCNCC1)C1CCOCC1,inactive
8,Cn1nc(-c2ccccc2)cc1[C@H]1CN2CC[C@H]1C[C@@H]2CNS(=O)(=O)c1cccs1,"inconclusive: 28.2 µM [inhibitor, partial curve, poor fit]"
9,COc1cc2c(cc1Oc1cccc(N(C)C)c1)NC(=O)C21CCN(Cc2cccc(O)c2)CC1,inactive
10,C[C@](O)(CS(=O)(=O)c1ccc(F)cc1)C(=O)Nc1ccc(C#N)c(C(F)(F)F)c1,"inconclusive: 27.1 µM [inhibitor, single point]"
11,COc1ccc(-c2nc(CN3C(=O)CN=C(c4ccccc4Cl)c4cc(Cl)ccc43)c(C)o2)cc1OC,"inconclusive: 39.8 µM [inhibitor, single point]"
12,Cc1cccc(CN2C(=O)CN=C(c3ccccc3)c3cc(Cl)ccc32)c1,"inconclusive: 39.8 µM [inhibitor, single point]"
13,c1ccc2c(c1)Nc1ccccc1S2,inactive
14,C=C[C@H]1CN2CC[C@H]1C[C@@H]2CNC(=O)Nc1ccc(Br)cc1,"inconclusive: 22.4 µM [inhibitor, single point]"
15,O=C1NCCCCCCN(Cc2cccnc2)[C@H]2CCC[C@@H]12,"inconclusive: 3.98 µM [inhibitor, full curve]"
16,O=C(Cc1c(F)cccc1Cl)N1CCN(Cc2ccccc2)CC(O)C1 (configuration not stated),inactive
17,COc1cc2c(cc1OCc1ccccc1)N(C(=O)Cc1ccc3c(c1)OCO3)CC21CCN(C)CC1,"inconclusive: 1.58 µM [inhibitor, partial curve, poor fit]"
18,Cc1nc(-c2cccs2)cc([C@H]2CN3CC[C@H]2C[C@@H]3CNC(=O)C(C)(C)C)n1,inactive
19,CCc1ccc(-n2nc(C)c3c2NC(=O)CSC3c2ccc(OC)cc2OC)cc1 (configuration not stated),"inconclusive: 12.6 µM [inhibitor, partial curve, poor fit]"
20,CN1CCN(C(=O)Cc2c[nH]c3ncc(-c4ccc5c(c4)OCO5)cc23)CC1,inactive
21,Cn1cc(C(=O)N2CC[C@@](C)(O)[C@@H](O)C2)c2ccccc21,"inconclusive: 3.98 µM [inhibitor, single point]"

row,Compound,Potency
1,C[C@]12CC[C@@H]3c4ccc(OC(=O)N(CCCl)CCCl)cc4CC[C@H]3[C@@H]1CC[C@@H]2OP(=O)(O)O,"inconclusive: 21.5 µM [inhibitor, partial curve]"
2,O=C(c1ccccc1)N1C[C@@H]2C[C@H](C1)c1ccc(-c3cncnc3)c(=O)n1C2,inactive
3,CC(=O)N1CCC2(C1)N=C(c1cccnc1)C(=O)N2 (configuration not stated),inactive
4,COc1ccc(NC(=O)NC[C@H]2C[C@@H]3CCN2C[C@@H]3CN2CCN(c3ncccn3)CC2)cc1,inactive
5,COc1cc2c(cc1Oc1ccccc1)NC(=O)C21CCN(c2ccnc(C)n2)CC1,"inconclusive: 56.2 µM [inhibitor, single point]"
6,Cn1nc(-c2ccc3ccccc3c2)cc1[C@H]1CN2CC[C@H]1C[C@@H]2COC(=O)Nc1cccc(C(F)(F)F)c1,inactive
7,COc1cc2c(cc1CCc1ccccc1)N(C(=O)c1c[nH]c3ccccc13)CC21CCN(C(C)=O)CC1,"inconclusive: 12.6 µM [inhibitor, partial curve, poor fit]"
8,COc1ccc(-c2nc(CN3C(=O)CN=C(c4ccccc4)c4cc(Cl)ccc43)c(C)o2)cc1,"inconclusive: 3.16 µM [inhibitor, full curve, poor fit]"
9,O=S1(=O)NC2(CCN(Cc3ccc(Cl)s3)C2)COc2ccncc21 (configuration not stated),inactive
10,COC1C(=O)N(c2cccc(F)c2)C12CCNCC2 (configuration not stated),inactive
11,Cc1cc(C)n(CC(=O)N2[C@H]3CC[C@@H]2c2cnc(-c4ccc(F)cc4)nc2C3)n1,inactive
12,O=C1CC2CCN(Cc3cccnc3)CC2CCN1 (configuration not stated),"inconclusive: 31.6 µM [inhibitor, partial curve]"
13,Cc1ncc2c(n1)C[C@@H]1CC[C@H]2N1S(=O)(=O)Cc1ccccc1,"inconclusive: 39.8 µM [inhibitor, single point]"
14,COc1ccc2c(C)c(C(=O)N3CCC(C#N)(c4ccccc4)CC3)oc2c1,inactive
15,C=CCCOC(=O)N1C[C@H](C(=O)OCC)[C@H]2c3ccccc3N(CC3CC3)C(=O)[C@]21C,"inconclusive: 12.6 µM [inhibitor, partial curve, poor fit]"
16,Cc1nc(-c2ccc(F)cc2)cc([C@H]2CN3CC[C@H]2C[C@@H]3CNS(=O)(=O)Cc2ccccc2)n1,inactive
17,Cc1ccc(-n2c(/C=C/c3cccs3)nc3ccccc3c2=O)cc1C,"inconclusive: 1.58 µM [inhibitor, full curve, poor fit]"
18,CN1c2ncccc2CN(Cc2ccccn2)CC[C@H]1CO,inactive
19,CN(C)c1ccc(C(=O)NC[C@H]2C[C@@H]3CCN2C[C@@H]3CN2CCCCC2)cc1,"inconclusive: 10 µM [inhibitor, single point]"
20,COc1ccc(CNC[C@H]2C[C@@H]3CCN2C[C@@H]3c2cc(C3CCCCC3)nn2C)cc1,"inconclusive: 35.5 µM [inhibitor, single point]"
21,Cc1nc(-c2ccc(N(C)C)cc2)cc([C@H]2CN3CC[C@H]2C[C@@H]3CNC(=O)C(C)(C)C)n1,"inconclusive: 31.6 µM [inhibitor, single point]"
